Test results published in the antibiotic and cytotoxicity screens of Wong et al. (2023).
The other results are listed elsewhere or left out.

Experiments:
HSkMC = human skeletal muscle cells; test: cytotoxicity call (relative viability < 0.9); details: 10 µM
HepG2 = test: cytotoxicity call (relative viability < 0.9); details: 10 µM
S. aureus RN4220 = test: growth inhibition call (relative growth <= 0.2); details: 50 µM

Cc1noc(C)c1S(=O)(=O)Nc1ccc2c(c1)CC(=O)N([C@@H](C)CO)C[C@H](C)[C@@H](CN(C)Cc1ccc(-c3ccccc3)cc1)O2
inactive: cytotoxicity call (HSkMC) | cytotoxicity call (HepG2) | growth inhibition call (S. aureus RN4220)

C[C@H]1CCCCO[C@@H](CN(C)Cc2ccncc2)[C@@H](C)CN([C@@H](C)CO)C(=O)c2cc(NC(=O)C3CCCCC3)ccc2O1
inactive: cytotoxicity call (HSkMC) | cytotoxicity call (HepG2) | growth inhibition call (S. aureus RN4220)

C[C@@H]1CN([C@@H](C)CO)C(=O)c2cc(NC(=O)CCC(F)(F)F)ccc2O[C@@H]1CN(C)C(=O)Nc1cccc2ccccc12
inactive: cytotoxicity call (HSkMC) | cytotoxicity call (HepG2) | growth inhibition call (S. aureus RN4220)

C[C@H](CO)N1C[C@H](C)[C@H](CN(C)C(=O)Cc2ccncc2)Oc2ncc(C#Cc3ccccc3F)cc2C1=O
inactive: cytotoxicity call (HSkMC) | cytotoxicity call (HepG2) | growth inhibition call (S. aureus RN4220)

C[C@@H]1CN([C@@H](C)CO)C(=O)c2cc(NC(=O)NC3CCCCC3)ccc2O[C@@H](C)CCCCO[C@H]1CN(C)C(=O)Cc1ccccc1
inactive: cytotoxicity call (HSkMC) | cytotoxicity call (HepG2) | growth inhibition call (S. aureus RN4220)

COc1ccc2c3c(n(c2c1)C)[C@@H](CO)N(C[C@]13CN(C1)C(=O)CN(C)C)C(=O)CN(C)C
inactive: cytotoxicity call (HSkMC) | cytotoxicity call (HepG2) | growth inhibition call (S. aureus RN4220)

C/C=C/c1ccc2c(c1)O[C@H](CN(C)Cc1ccc(C(=O)O)cc1)[C@@H](C)CN([C@H](C)CO)S2(=O)=O
inactive: cytotoxicity call (HSkMC) | cytotoxicity call (HepG2) | growth inhibition call (S. aureus RN4220)

O=C(O)[C@H]1O[C@@H](Oc2c(-c3ccc(O)c(O)c3)oc3cc(O)cc(O)c3c2=O)[C@H](O)[C@@H](O)[C@@H]1O
inactive: cytotoxicity call (HSkMC) | cytotoxicity call (HepG2) | growth inhibition call (S. aureus RN4220)

O=c1cc(-c2ccccc2)oc2cc(O)c(O)c(O)c12
inactive: cytotoxicity call (HSkMC) | cytotoxicity call (HepG2) | growth inhibition call (S. aureus RN4220)

Cc1noc(C)c1NC(=O)Nc1ccc2c(c1)CC(=O)N([C@H](C)CO)C[C@H](C)[C@@H](CN(C)Cc1ccc(Cl)c(Cl)c1)O2
inactive: cytotoxicity call (HSkMC) | cytotoxicity call (HepG2) | growth inhibition call (S. aureus RN4220)

Cc1ccsc1C=CC1=NCCCN1C.O=C(O)CC(O)(CC(=O)O)C(=O)O
inactive: cytotoxicity call (HSkMC) | cytotoxicity call (HepG2) | growth inhibition call (S. aureus RN4220)

C[C@H](CO)N1C[C@H](C)[C@@H](CN(C)Cc2ccc(C(=O)O)cc2)OCCCC[C@H](C)Oc2ccc(NC(=O)c3ccccc3)cc2C1=O
inactive: cytotoxicity call (HSkMC) | cytotoxicity call (HepG2) | growth inhibition call (S. aureus RN4220)

CC(C)(C)CC(C)(C)c1cc(Cc2cc(C(C)(C)CC(C)(C)C)cc(-n3nc4ccccc4n3)c2O)c(O)c(-n2nc3ccccc3n2)c1
inactive: cytotoxicity call (HSkMC) | cytotoxicity call (HepG2) | growth inhibition call (S. aureus RN4220)

C[C@@H]1CCCCO[C@@H](CN(C)S(=O)(=O)c2cccs2)[C@@H](C)CN([C@H](C)CO)C(=O)c2cc(NC(=O)CCCCCC(=O)Nc3ccccc3N)ccc2O1
inactive: cytotoxicity call (HSkMC) | cytotoxicity call (HepG2) | growth inhibition call (S. aureus RN4220)

CC1=Nc2ccc(Cl)cc2S(=O)(=O)N1
inactive: cytotoxicity call (HSkMC) | cytotoxicity call (HepG2) | growth inhibition call (S. aureus RN4220)

Cc1noc(C)c1S(=O)(=O)Nc1ccc2c(c1)C(=O)N([C@@H](C)CO)C[C@@H](C)[C@H](CN(C)Cc1ccc(-c3ccccc3)cc1)O2
inactive: cytotoxicity call (HSkMC) | cytotoxicity call (HepG2) | growth inhibition call (S. aureus RN4220)

O=C(NCCN1CCOCC1)C(=O)NC[C@H]1COc2ccccc2O1
inactive: cytotoxicity call (HSkMC) | cytotoxicity call (HepG2) | growth inhibition call (S. aureus RN4220)

CN1CCN(C(=O)C[C@H]2CC[C@H]3[C@@H](COC[C@H](O)CN3CC3CCCC3)O2)CC1
inactive: cytotoxicity call (HSkMC) | cytotoxicity call (HepG2) | growth inhibition call (S. aureus RN4220)

O=C(N[C@@H]1CC[C@@H](CC(=O)N2CCOCC2)O[C@@H]1CO)c1ccc2c(c1)OCO2
inactive: cytotoxicity call (HSkMC) | cytotoxicity call (HepG2) | growth inhibition call (S. aureus RN4220)

F[C@H]1CCNC1
inactive: cytotoxicity call (HSkMC) | cytotoxicity call (HepG2) | growth inhibition call (S. aureus RN4220)

CN1C[C@@H](O)COC[C@@H]2O[C@@H](CC(=O)N3CCN(c4ccccc4)CC3)CC[C@H]21
inactive: cytotoxicity call (HSkMC) | cytotoxicity call (HepG2) | growth inhibition call (S. aureus RN4220)

CC(C)NC(=O)N(C)C[C@H]1Oc2cc(C#Cc3cccc(F)c3)ccc2S(=O)(=O)N([C@H](C)CO)C[C@H]1C
inactive: cytotoxicity call (HSkMC) | cytotoxicity call (HepG2) | growth inhibition call (S. aureus RN4220)

C[C@@H]1CN([C@@H](C)CO)C(=O)c2cc(NC(=O)NC3CCCCC3)ccc2O[C@@H]1CN(C)Cc1ccc(C(=O)Nc2ccccc2N)cc1
inactive: cytotoxicity call (HSkMC) | cytotoxicity call (HepG2) | growth inhibition call (S. aureus RN4220)

C[C@H]1CN([C@@H](C)CO)C(=O)c2cccc(NC(=O)C3CCOCC3)c2O[C@H]1CN(C)Cc1ccccc1
inactive: cytotoxicity call (HSkMC) | cytotoxicity call (HepG2) | growth inhibition call (S. aureus RN4220)

O=C(C1=C[C@H](c2ccc(C(F)(F)F)cc2)C[C@H](OCc2ccc(CO)cc2)O1)N1CCN(Cc2ccccc2)CC1
inactive: cytotoxicity call (HSkMC) | cytotoxicity call (HepG2) | growth inhibition call (S. aureus RN4220)
